The values that follow come from paper PMC12820563, “FoxP3 forms a head-to-head dimer in vivo and stabilizes its multimerization on adjacent microsatellites”.

The list shows a part of the results.

This experiment has as its target T1, MBP-FoxP1dN (Mus musculus, UniProt P58462 326-579).
T1 sequence: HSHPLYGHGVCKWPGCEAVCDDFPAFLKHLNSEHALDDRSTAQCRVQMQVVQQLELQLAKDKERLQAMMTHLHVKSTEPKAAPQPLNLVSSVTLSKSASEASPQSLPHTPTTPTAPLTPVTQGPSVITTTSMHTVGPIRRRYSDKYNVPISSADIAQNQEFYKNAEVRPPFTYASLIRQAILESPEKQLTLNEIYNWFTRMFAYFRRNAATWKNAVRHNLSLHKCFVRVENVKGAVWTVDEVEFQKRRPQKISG
As to the kind of experiment: PD-seq (MBP pull-down with sequencing); 20 mM Tris-HCl pH 7.5, 100 mM NaCl, 1.5 mM MgCl2, 0.4 uM protein, 0.1 uM dsDNA library, 30 min, room temperature, amylose pull-down; high values mean tight binding. To be noted: protein: recombinant; tags: His6-MBP; chain copies: 2; dsDNA, one strand shown. In a few lines: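 E. coli-expressed mouse FoxP3 or FoxP1 fragment, N-terminus removed and tagged with His6-MBP, was used at 0.4 µM against 0.1 µM of a Klenow-filled degenerate double-stranded DNA library. After 30 min at room temperature in Tris pH 7.5 buffer with NaCl and MgCl2, complexes were pulled down on amylose resin and washed three times. Binding is pull-down over input reads-per-million enrichment from pooled replicates of the proteinase K-released, PCR-barcoded, Illumina-sequenced DNA.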
Regarding “GATGATTGTTCTCCCAGCTGATGAATTACACCTATCGAGTAAACAAATTTTCCTAATCTTTCTGTTCAAGCGCCATCTAC”, the binding signal was 1.14 RPM ratio (pull-down/input). In the case of “GATGATTGTTCTCCCAGCTGATGAATTCCGCGGATCGAGTAAACAAATTTTCCTAATCTTTCTGTTCAAGCGCCATCTAC” it was 0.805 RPM ratio (pull-down/input). With “GATGATTGTTCTCCCAGCTGATGAATTAATTAATTCGAGTAAACAAATTTTCCTAATCTTTCTGTTCAAGCGCCATCTAC” the figure was 1.05 RPM ratio (pull-down/input); with “GATGATTGTTCTCCCAGCTGATGAATTCCGAGCTTCGAGTAAACAAATTTTCCTAATCTTTCTGTTCAAGCGCCATCTAC”, 0.828 RPM ratio (pull-down/input); with “GATGATTGTTCTCCCAGCTGATGAATTCGAGAAGTCGAGTAAACAAATTTTCCTAATCTTTCTGTTCAAGCGCCATCTAC”, 0.753 RPM ratio (pull-down/input). In the case of “GATGATTGTTCTCCCAGCTGATGAATTGCAGTAGTCGAGTAAACAAATTTTCCTAATCTTTCTGTTCAAGCGCCATCTAC” it was 1.04 RPM ratio (pull-down/input); in that of “GATGATTGTTCTCCCAGCTGATGAATTCATAGATTCGAGTAAACAAATTTTCCTAATCTTTCTGTTCAAGCGCCATCTAC”, 0.903 RPM ratio (pull-down/input). For “GATGATTGTTCTCCCAGCTGATGAATTTGGTCTATCGAGTAAACAAATTTTCCTAATCTTTCTGTTCAAGCGCCATCTAC”, the binding signal is 0.952 RPM ratio (pull-down/input). On to “GATGATTGTTCTCCCAGCTGATGAATTGACGGGTTCGAGTAAACAAATTTTCCTAATCTTTCTGTTCAAGCGCCATCTAC”, for which the binding signal is 1.06 RPM ratio (pull-down/input). In the case of “GATGATTGTTCTCCCAGCTGATGAATTTAAAAAATCGAGTAAACAAATTTTCCTAATCTTTCTGTTCAAGCGCCATCTAC” it was 1.01 RPM ratio (pull-down/input); in that of “GATGATTGTTCTCCCAGCTGATGAATTAGAACTGTCGAGTAAACAAATTTTCCTAATCTTTCTGTTCAAGCGCCATCTAC”, 0.941 RPM ratio (pull-down/input); in that of “GATGATTGTTCTCCCAGCTGATGAATTCAGCTCCTCGAGTAAACAAATTTTCCTAATCTTTCTGTTCAAGCGCCATCTAC”, 0.789 RPM ratio (pull-down/input). In the case of “GATGATTGTTCTCCCAGCTGATGAATTTGCGCATTCGAGTAAACAAATTTTCCTAATCTTTCTGTTCAAGCGCCATCTAC” it was 1.35 RPM ratio (pull-down/input); in that of “GATGATTGTTCTCCCAGCTGATGAATTGTTGGGCTCGAGTAAACAAATTTTCCTAATCTTTCTGTTCAAGCGCCATCTAC”, 1.2 RPM ratio (pull-down/input). In the case of “GATGATTGTTCTCCCAGCTGATGAATTGAATGAGTCGAGTAAACAAATTTTCCTAATCTTTCTGTTCAAGCGCCATCTAC” it was 0.893 RPM ratio (pull-down/input). Turning to “GATGATTGTTCTCCCAGCTGATGAATTAGTAATGTCGAGTAAACAAATTTTCCTAATCTTTCTGTTCAAGCGCCATCTAC”, the binding signal is 1.16 RPM ratio (pull-down/input).

Regarding “GATGATTGTTCTCCCAGCTGATGAATTGCGTCACTCGAGTAAACAAATTTTCCTAATCTTTCTGTTCAAGCGCCATCTAC”, the binding signal was 1.1 RPM ratio (pull-down/input). In the case of “GATGATTGTTCTCCCAGCTGATGAATTCCCCAGTTCGAGTAAACAAATTTTCCTAATCTTTCTGTTCAAGCGCCATCTAC” it was 0.825 RPM ratio (pull-down/input).
